Article PMC4336329 (PLoS ONE, 2015)
Hit rate of the full screen: of about 310,000 compounds, about 2,200 (0.71%) showed an effect of 50% or more. The effect is printed as a negative number. This is one part of the list.

target: human ether-à-go-go-related gene (hERG) potassium channel (human, UniProt Q12809); test: primary screen, population patch clamp on CHO cells stably expressing hERG
Sequence (Q12809 whole entry, looked up): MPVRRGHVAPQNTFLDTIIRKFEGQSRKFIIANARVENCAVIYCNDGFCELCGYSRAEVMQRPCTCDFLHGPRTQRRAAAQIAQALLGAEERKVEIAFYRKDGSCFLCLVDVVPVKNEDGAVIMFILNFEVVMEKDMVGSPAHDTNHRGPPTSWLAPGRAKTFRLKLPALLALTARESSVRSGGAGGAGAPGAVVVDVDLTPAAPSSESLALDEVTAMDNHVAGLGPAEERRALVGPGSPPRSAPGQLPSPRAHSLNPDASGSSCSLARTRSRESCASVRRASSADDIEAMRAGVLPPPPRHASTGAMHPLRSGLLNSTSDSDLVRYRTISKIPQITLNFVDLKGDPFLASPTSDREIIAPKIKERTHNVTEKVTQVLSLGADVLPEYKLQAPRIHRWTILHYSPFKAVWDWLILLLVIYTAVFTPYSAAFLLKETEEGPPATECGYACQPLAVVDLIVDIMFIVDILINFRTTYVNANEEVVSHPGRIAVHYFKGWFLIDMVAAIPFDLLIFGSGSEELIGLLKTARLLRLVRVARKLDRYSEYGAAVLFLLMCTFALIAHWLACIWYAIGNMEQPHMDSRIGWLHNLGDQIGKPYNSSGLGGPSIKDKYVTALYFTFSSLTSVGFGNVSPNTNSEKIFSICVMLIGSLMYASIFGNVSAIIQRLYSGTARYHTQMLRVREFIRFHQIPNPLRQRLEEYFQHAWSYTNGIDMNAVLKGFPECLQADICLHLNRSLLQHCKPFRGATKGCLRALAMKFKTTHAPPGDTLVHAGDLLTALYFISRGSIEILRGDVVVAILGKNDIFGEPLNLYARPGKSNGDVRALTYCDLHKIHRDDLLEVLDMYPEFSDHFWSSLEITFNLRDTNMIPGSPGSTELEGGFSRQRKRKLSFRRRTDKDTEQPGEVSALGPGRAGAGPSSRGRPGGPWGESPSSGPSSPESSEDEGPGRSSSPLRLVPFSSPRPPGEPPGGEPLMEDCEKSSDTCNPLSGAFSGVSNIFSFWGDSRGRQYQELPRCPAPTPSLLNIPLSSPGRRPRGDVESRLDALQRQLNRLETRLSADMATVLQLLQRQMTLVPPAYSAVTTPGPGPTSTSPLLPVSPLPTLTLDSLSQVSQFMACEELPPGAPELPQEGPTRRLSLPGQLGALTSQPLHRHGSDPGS

| Structure (SMILES) | hERG current change (%, negative = inhibition) at 1uM [%] |
| --- | --- |
| CCOc1ccc(C(=O)NC(C(=O)NCc2cccnc2)C(C)C)cc1 (stereo not drawn) | 3.29 |
| CCCNC(=O)NC(=O)CSc1nnc(-c2ccncc2)n1CC | 12.5 |
| COc1cc(C2NC(=O)NC(C)=C2C(=O)OC2CCCC(C)C2)ccc1O (stereo not drawn) | -2.72 |
| N#Cc1ccccc1S(=O)(=O)N1CCN(C(=O)C2CCCC2)CC1 | 0.462 |
| O=C(N/N=C\c1ccc(-c2ccc(Cl)c(Cl)c2)o1)C(=O)N1CCCC1 | 0.0982 |
| O=C(Nc1ccc(F)cc1)c1ccc(S(=O)(=O)N2CCOCC2)o1 | -2.97 |
| Cc1ccc(S(=O)(=O)N2CCC(=O)N(C(COCc3ccc(C(F)(F)F)cc3)Cc3ccccc3)CC2)cc1 (stereo not drawn) | 13.2 |
| CC1CN(S(=O)(=O)c2ccc(C(=O)NN3CCN(C)CC3)cc2)CC(C)O1 (stereo not drawn) | 5.94 |
| O=C(CN1CCOCC1)Nc1c2c(nc3ccccc13)N(Cc1ccccc1)CC2.O=C(O)C(=O)O | -47.2 |
| O=C(NC(=S)NC1CCCCC1)c1ccccc1 | 12.2 |
| O=C(OCC(=O)N1CCCC1=O)c1cc2ccccc2o1 | 7.72 |
| COC(=O)/C=C1\NCCSC1=O | 1.03 |
| O=[N+]([O-])c1ccc(OS(=O)(=O)Cc2ccccc2)cc1 | -0.36 |
| Cc1ccc(NC2CCCN(C(=O)c3cc4ncccn4n3)C2)cc1C (stereo not drawn) | 14.2 |
| C/C(=N\N1CCN(c2ccccc2)CC1)c1ccncc1 | 7.82 |
| O=C(O)CC1(CC(=O)Nc2ccccc2Br)CCCC1 | 4.18 |
| Cc1nc(S(=O)(=O)Cc2ccc(Cl)cc2)nc2c1CCC2 | 14 |
| CCn1ncc(C2C(C(=O)Nc3ccc(C)cn3)=C(C)NC3=C2C(=O)CCC3)c1C (stereo not drawn) | 12.7 |
| CC1(C)CC(=O)C2=C(C1)NC(SCC(=O)Nc1ccccc1)=C(C#N)C2c1ccco1 (stereo not drawn) | -0.909 |
| O=C(N/N=C/c1ccco1)c1ccc(OCc2ccccc2)cc1 | 9.88 |
| O=C(COc1ccc(F)cc1)Nc1ccc2c(c1)OCCO2 | 14.6 |
| Cc1ccc(C(=O)Nc2cc(Cl)ccc2N2CCCCC2)s1 | 14.3 |

| Structure (SMILES) | hERG current change (%, negative = inhibition) at 1uM [%] |
| --- | --- |
| CC1=C(C(=O)OCc2ccccc2)C(c2ccc(Cl)cc2Cl)NC(=O)N1CCCCCC(=O)O (stereo not drawn) | 6.91 |
| COc1ccc(Cc2c(N)nc(N)nc2N)cc1 | 2.68 |
| CC(C)NC(=O)CSc1nnc(-c2ccncc2)n1-c1ccccc1 | 15.9 |
| COc1cccc(N/C(SCc2cccc([N+](=O)[O-])c2)=C(/C#N)C(N)=O)c1 | 7.19 |
| CC(C)(C)NC(NC(=O)Cc1ccccc1)C(Cl)(Cl)Cl (stereo not drawn) | 5.27 |
| COc1cc(OC)c(OC)cc1C=NCC1(c2ccccc2)CCCC1.Cl | 11.6 |
| [N-]=[N+]=NCCN1CCN(Cc2ccccc2)CCC1=O | -0.414 |
| O=C(CCc1ccc(S(=O)(=O)N2CCOCC2)cc1)Nc1ccc2c(c1)OCCO2 | 13.7 |
| CC(C)Nc1nc(NC(C)C)nc(N(C#N)CCOc2ccc(Cl)cc2Cl)n1 | 15.5 |
| CC1CCN(C(=O)CNC(=O)Cn2ccc3ccccc3c2=O)CC1 | 11.5 |
| OC(Cn1cncn1)c1ccc(Cl)cc1Cl (stereo not drawn) | 17.2 |
| O=C(O)c1ccc(N2CC3CC(C2)c2cccc(=O)n2C3)c(NC(=S)Nc2ccc(Br)cc2)c1 (stereo not drawn) | 24.2 |
| O=C(O)c1cnn2c(C(F)F)cc(C(F)F)nc12 | 3.37 |
| O=Cc1ccc(-c2ccc(C(=O)O)cc2)o1 | -2.38 |
| CCCCOc1ccc(C(=O)NCC(=O)NC2CCN(Cc3ccccc3)CC2)cc1 | 12.2 |
| Cc1c(NC2=CC(=O)CC(C)(C)C2)ccc([N+](=O)[O-])c1C | -5.15 |
| O=C(COC(=O)Cc1ccccc1F)NNC(=O)c1ccc([N+](=O)[O-])cc1 | 15.3 |
| Cc1ccc(NC(=O)CN2C(=O)S/C(=C\c3cc(Cl)c(OCC(=O)O)c(Cl)c3)C2=O)cc1 | 14.5 |
| COC(=O)c1ccc(OC)c(CSc2nnc(COc3ccc(OC)cc3)o2)c1 | -6.33 |
| O=C(Cn1cnc2ccccc2c1=O)N1CCN(c2ccc(F)cc2)CC1 | 13.1 |
| CCC(C(=O)Nc1nc(C)cs1)c1ccccc1 (stereo not drawn) | 13.5 |
| COc1ccc(CNC(=O)C2CCC(CNC(=O)[C@@H]3Cc4ccccc4CN3)CC2)cc1 (stereo partly drawn) | 7.35 |

| Structure (SMILES) | hERG current change (%, negative = inhibition) at 1uM [%] |
| --- | --- |
| Nn1c(=S)[nH]nc(Cc2ccc(O)cc2)c1=O | -16.3 |
| Cc1ccccc1C(=O)N1CCN(c2ccc([N+](=O)[O-])c(N3CCOCC3)c2)CC1 | 2.94 |
| Cc1ccc(CNC(=O)Cn2cccc2C(=O)c2ccccc2)cc1 | 14.5 |
| Cc1ccc(-c2nc3c(c(SCC(=O)N4CCOCC4)n2)COC(C)(C)C3)cc1 | 7.54 |
| Cc1ccc(NC(=O)CSc2nnc(C3CC3)n2CC2CCCO2)c(C)c1 (stereo not drawn) | 0.463 |
| CC1=CCC2C(=O)N(c3ccc(C(=O)Nc4ccccc4Cl)cc3)C(=O)C2C1 (stereo not drawn) | 7.86 |
| CS(=O)(=O)Nn1cnc2ccccc2c1=O | 11.5 |
| CCOC(=O)c1c(NC(=O)CN2CCCCC2)sc2c1CCCC2O (stereo not drawn) | 9.65 |
| Cc1ccc(N=C2NC(=O)/C(=C/c3cccn3C)S2)c(C)c1 | 11.4 |
| O=C(O)[C@@H]1Cc2c([nH]c3ccccc23)C2CCC(=O)N21 (stereo partly drawn) | 17.1 |
| CCn1cc(Br)c(C(=O)Nc2cccc(Cl)c2)n1 | 6.29 |
| Cl.N[C@@H](CO)c1nnc([C@H](Cc2ccc(O)cc2)NC(=O)C2CCNCC2)o1 | 6.02 |
| O=C(NC1CCCc2ccccc21)C1CCN(S(=O)(=O)c2cccc3nonc23)CC1 (stereo not drawn) | 15.7 |
| O=C(C=C1CCN(c2ncc(C(F)(F)F)cc2Cl)CC1)NNC(=O)Nc1ccc(Cl)cc1 | 14.4 |
| Cc1cccc(NC(=O)c2ccccc2SCc2ccc(F)cc2)n1 | 10.9 |
| CC1CCN(S(=O)(=O)Cc2ccccc2Cl)CC1 | 3.71 |
| O=C(c1ccccc1)C1CCN(C(=O)c2ccc(Cl)cc2)CC1 | 3 |
| CCN1CCc2c(sc(NC(=O)c3ccc(S(=O)(=O)N4CC(C)OC(C)C4)cc3)c2C(N)=O)C1 (stereo not drawn) | -6.31 |
| CC(=O)c1ccc(OC(C)C)c(CN2CCCCC2)c1.Cl | 8.34 |
| CN1CCN(NC(=O)c2ccc(Cl)c(S(=O)(=O)Nc3ccc(Cl)cc3)c2)CC1.Cl | 2.6 |
| Cc1ccc(-n2c(=O)cc(N3CCN(Cc4ccccc4)CC3)[nH]c2=O)cc1 | 10.3 |
| CCOc1ccc(C)cc1-n1nc2ccccc2n1 | 5.64 |

| Structure (SMILES) | hERG current change (%, negative = inhibition) at 1uM [%] |
| --- | --- |
| CCN1C(=NCc2ccccc2)N[C@@H](c2ccccc2)[C@H](C(=O)OC)[C@H]1C | 9.98 |
| O=C(CSCC(=O)NC1CCCC1)Nc1ccccc1 | 7.25 |
| Cc1cc(N2CCN(C)CC2)nc2ccc(NC(=O)CCC(=O)NCCC(C)C)cc12 | 13.4 |
| Cc1cc(C)cc(NC(=O)COC(=O)c2cc(=O)[nH]c(=O)[nH]2)c1 | 8.97 |
| COc1ccc2c(c1)c(C(=O)CN1CCOCC1)c(C)n2C | -1.13 |
| CNC(=S)N1CCc2cc(OC)c(OC)cc2C1COc1ccc(OC)cc1 (stereo not drawn) | -2.52 |
| COc1ccc(Cl)cc1N1C(=NC(=O)C2CCCO2)SC2CS(=O)(=O)CC21 (stereo not drawn) | 16.8 |
| COc1ccc(CN2CCN(C(=O)c3ccc(F)cc3)CC2)c(OC)c1.O=C(O)C(=O)O | -2.34 |
| COc1ccccc1-c1ccc(=O)n(CC(=O)NCc2ccco2)n1 | 19 |
| Cc1ccccc1CN1C(=O)[C@H]2Cc3c([nH]c4ccccc34)C(C)(C)N2C1=O | 17.1 |
| Cc1ncoc1C(=O)N1CCCC(CCC(=O)NCc2ccccc2F)C1 (stereo not drawn) | -8.71 |
| CCOC(=O)c1c(C)[nH]c(C(=O)C(C)OC(=O)c2cnc(C)cn2)c1C (stereo not drawn) | 4.25 |
| COc1cc(-c2nc3ccc(C)cn3c2NCc2ccccc2)ccc1SC1CCCCC1.O=C(O)C(F)(F)F | 16.1 |
| C/C(=N\NC(=S)NC(C)C)c1cccc([N+](=O)[O-])c1 | -13.9 |
| Cc1cnc(-c2nnc(N(C)C(=O)C3CCOC3)s2)cn1 (stereo not drawn) | 8.37 |
| CN(C)S(=O)(=O)c1ccc(NC(=O)COC(=O)c2n[nH]c3ccccc23)cc1 | 6.21 |
| CCN(CC)CCN(C(=O)c1ccc2c(c1)OCCO2)c1nc2ccc(C)cc2s1.Cl | -1.02 |
| COCC(=O)NCCSc1c(C)[nH]c2ccccc12 | 9.84 |
| O=C(COC(=O)c1cccnc1Cl)Nc1cccc(S(=O)(=O)N2CCCCC2)c1 | 4.13 |
| CCCCNC(=O)C1CCN(C(=O)C2CCN(S(=O)(=O)c3ccc(C)cc3)CC2)CC1 | 8.91 |
| CC1CN(C(=O)/C(C#N)=C2\N=C(NC(=O)c3ccc(F)cc3)c3ccccc32)CC(C)O1 (stereo not drawn) | 15.3 |
